In the supplement of paper PMC10126150:
Sequences with one replicate were seen in a single cluster, so their values are uncertain.

Test system: ATP
Test: switch fluorescence ratio, 500 uM ATP over buffer (Cy3 cluster intensity, sum of 5 cycles each) (fold (ratio)); higher = stronger signal-on switching upon ATP binding; sequences stand for … in TCGTCGGCAGCGTCAGATGTGTATAAGAGACAGTTTTTTTTTTTTTTTTTTTTTTTTT…TC
Conditions: aptamer strand: ATP DNA aptamer (quencher-CACCTGGGGGAGTATTGCGGAGGAAGG + anchor), 100 nM annealed; ATP concentration: 500 uM; one replicate
Method in brief: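 Five buffer/ATP imaging cycles were run on Cy3-labelled switching-strand clusters on a modified Illumina MiSeq flow-cell, with NaOH stripping and re-annealing between cycles. In each cycle, clusters annealed to 100 nM quencher-labelled ATP aptamer were imaged in selection buffer, then after 15 min with 500 uM ATP at 22 °C. Per cluster, the fluorescence ratio is summed target-cycle over summed buffer-cycle Cy3 intensity, averaged per switch-domain sequence. Only clusters within 100-1000 RFU were kept.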
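Note: ATP exposure 15 min at 22 °C before imaging.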

Sequence	switch fluorescence ratio
CTAGAGCTCA	0.989
AGCTCTTACC	1
GGTAGGGAGT	0.981
AACTTTTGTC	1.01
CCGGTTAAAT	1.08
ATCTAAATAT	1.01
GATCGGTCAC	1.03
GAAGATGAAG	0.936
AAAAATTT	1.01
GTAGACGATC	1
ATGATAACGT	1.01
TAAGGAAAAA	2.43
TATTTGCGGA	0.976
TACCAAGACT	1.13
CTCGCTCAGG	3.13
GATTACAGGC	1.06
GCATGGTATT	1.01
TAGATAAAAT	1.02
AAAGGTGTTC	1.2
GCGTATCGAA	1.02
AGTCACGAAT	1.01
TCGACGCTTT	2.03
TGTATGGAAC	0.999
GTAGCCTGAC	1.88
ACAAGTCCGC	1.86
ACAATTCCAA	1.01

Sequence	switch fluorescence ratio
CCAATCCATT	0.99
CAATCGGCTG	0.981
TGCCATCAAC	1.01
ATGAGATGG	0.996
CATCAAGCAG	2.31
AAGAGCCTAT	0.958
TTGCTTGAAT	1.04
GTGCTATCTT	0.955
CGGTTGAACG	0.986
TAACCCATGC	1.21
GATGGTCTG	1.04
GTTGTGGGC	0.964
TCCTAACCGT	1.19
AGAGATGTCC	0.962
GCCCATAGGC	0.951
CGGTGGCTCG	1.04
CTGCTAGGGT	0.934
ATTAGGGAGG	1.03
TTTGACGCAA	6.1
AGTTTATCAC	1
CAAAGGCGTC	0.971
GTAAGGGTCT	1.29
AGGGTAGTGA	0.982
TAGTTTCTTA	1.04
GTTATGCAT	1.03
AAAGTACTAT	1.19

Sequence	switch fluorescence ratio
TTTATGATTG	1.03
CTGGGGTTCC	0.99
AGGACATTCC	1.67
TGCAGTACT	5.7
ATTAAGCGG	1.02
GGGAATCCAG	0.976
GAGGGTACTT	1.01
TCCCCCAGTG	4.08
GGGTGCTTGT	1.02
TTCTGTGTTG	0.992
AGATCCGCTA	2.09
GGTTCGGCAC	1.02
CGGGCAAGTA	1.02
TACGGTTGTG	1
TAACAAGGGC	0.981
TTCATCGGGC	1.03
AAGATGAGA	0.988
GGCGGGCCAT	1.09
AACCTATATT	0.977
TTTTCTGGGA	0.958
GACCTTTACC	1.38
CACAGGAGAT	1.03
CGGATATTGG	0.95
ACAAGGCTAC	1.33
GATTTGAGGT	0.975
GTCCGCCAGA	1.29

Sequence	switch fluorescence ratio
GGTGCCTAGG	1.03
GCGCCTTGAG	0.997
TACCAAGCGG	0.997
CTCACCAAC	1.3
CTACGTTAAG	1.07
AATCAAGTTC	0.975
AGGATGAGTA	0.962
AGCAGTTACA	1.08
TTTAAGCATA	1.68
TTGACTGCTC	0.995
GTGAGCATAA	1.07
CCTGTGATGT	1.04
CATAACATTT	0.976
TCATGGCGTC	1
ATAGGGTCAA	1.03
AATGGCCGAT	1.02
TGCGATCGAC	1.19
GTTCCTTCGT	1.64
GACCCGTGAG	0.991
AACATCGAGG	1.04
TCAGTGGAAA	1
CGTTAGTATG	0.957
GCTTATTG	0.993
AGTGTTTTTC	1.04
ATTACTTATT	1.02
ATCGTAGTAG	0.99

Sequence	switch fluorescence ratio
AGTTGGCCGC	0.97
AGTTTTTGTA	0.985
TCAGCTTATG	0.937
CTTTAAGACT	1
TGATAGGCGC	0.987
GTTAGGGTCG	1.1
TGCATCCAGG	1.64
GTACTGGGCT	0.997
CCAGTCGAGC	0.969
CCTCAGGCTT	2.66
GGATCAAGAA	1.02
CTATTTGCTC	1.02
GTGTATATTT	0.943
ACTCTAAGAA	1.11
TCTGGTATTT	1
GCTAGATCCA	0.964
ACCCCCTGTG	4.91
ACGACCTCAT	1.21
CGTTATTACT	1.06
TAATATAGCG	0.983
GGCTTGATTT	0.998
AATGTATCA	0.974
TGCTGTGCTG	0.955
TGATTTCGGG	1
ATGGTCCAAT	0.966
ACCTTTGCTT	1.05

Sequence	switch fluorescence ratio
AACATTGCTC	1.26
TCTGGGATAT	1.01
ATAGTTAATA	0.999
AGAAGAAGAA	1.03
GTCGGGTGCT	0.984
TTAAAAACGG	1.25
AGGATTAGCA	0.989
AGTCAAGGCC	1.03
TTCGTGGAAG	1.11
CTATCGACGC	1.58
CACGAGCCAC	1.17
TCGTGTGAGG	0.974
CAAAGTACTG	1.15
TCGATCTAAG	0.956
GGGTCTGGCG	0.971
AATAGCGGCC	1.08
TGTATCCTAG	0.944
AGTATCAAGC	0.999
GATTATCGGC	1.09
ACTTCGATGG	0.967
TGATAACCAG	0.98
GCCATCCTGA	0.982
TCCGGCACA	1.68
AACACCAGCG	1.16
CGTAGACGTC	0.983
CTAGTAAATT	1.01

Sequence	switch fluorescence ratio
TTTAAATGTC	0.946
GACCGCGGTT	1.05
ATGCGAGGA	1.05
ACCACCCGCT	1.2
TTAGAAGCGT	1.02
AGCCTGGTT	1.01
AGGAAACCGA	1.45
CGTCACCGAA	1.04
TTCACTAGTT	0.973
ACAATGCCAA	1.01
TTATGGAGAG	0.982
ATACTAATTA	0.972
ACAAAAGCGC	1.03
GCAACCAGGA	1.14
TCCAGTCCGG	0.996
AATCCCAATT	1.02
GCGGGGTATT	1.04
TGCTTTTATA	0.991
AGCTTACG	1.09
CTTCACTCGA	0.986
GCGAGTATAT	1.01
GGGTGTTTCG	0.964
ATTCGGACG	1.03
TATTCAAGGG	1.03
AGTCGCATAA	1.09
CAAGTCAGTT	0.973

Sequence	switch fluorescence ratio
ACTGACCCGG	1.13
GTGGGTGGAA	1
TATAGCTCGA	1.04
GTCAATTATC	1.02
TTGGGTGACA	1.02
ACTGTCGTCC	0.999
GGGCAAAACC	1.06
ACTTTATGGT	1.04
AAATGACA	0.986
GACTTTCCCT	1.08
TTCGTGTGAG	0.961
GACGACTTGC	1.05
TACTTAGGCG	0.997
AGGGAGCAAT	3.04
AACGAAACGT	1.05
TCGGAGTCAG	1.15
CTGTCGGTTT	1
TTAAAAAGCT	1.04
GGGGTCTGT	0.984
